Laboratory results as given in PubChem BioAssay AID588855 (National Center for Advancing Translational Sciences (NCATS), 2011).
In all, about 410,000 compounds went through this assay and about 5,000 (1.2%) were called active. Inconclusive means that the source gave no clear call. Such entries were picked first, then a sample of the others. Calls come from the whole dose curve; as a rule, active = well fitted inhibition curve with a large enough effect; inconclusive = small, poorly fitted or top-dose-only effect; inactive = no such curve, though single readings can be large or run the other way. Potencies of inconclusive entries are doubtful fits and often do not repeat.

Experiment: qHTS for Inhibitors of TGF-b; note: nearly all actives have a fitted effect of over 65% in size
Settings: HepG2 CAGA-GFP TGF-b/SMAD3 reporter, GFP fluorescence, 18 h, TGF-beta stimulated, 500 pg/mL final; series mostly up to 46.1 µM
How it was run: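 Per well, imaged GFP fluorescence of HEPG2 CAGA-GFP cells gives the signal; cells get compound, then TGF-beta (500 pg/mL final), 18 h at 37 degrees C; %Activity versus -TGF-beta and +DMSO controls.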
Potency is the fitted concentration of half-maximal effect; tags give direction and shape of the fitted curve.

Row | SMILES | Potency
1 | Cc1ccc(S(=O)(=O)N2CCN(C)CC2)c(C)c1 | inconclusive: 31.6 µM [inhibitor, single point]
2 | Cc1cc(O)c(N)c(C)c1Cl | inconclusive: 5.62 µM [inhibitor, single point]
3 | CCN(CC)C(=O)c1sc2c(c1C)c(=O)n(-c1ccccc1)c(=O)n2Cc1c(C)cc(C)cc1C | inactive
4 | O=C(c1ccco1)N(Cc1cccc(Br)c1)C1CCS(=O)(=O)C1 (stereo not drawn) | inactive
5 | Cc1ccc(NC(=O)C2CC(=O)N(c3ccccc3Cl)C2)cc1S(=O)(=O)N1CCOCC1 (stereo not drawn) | inactive
6 | Cc1c(C(=O)NCc2ccc(F)cc2)sc(=O)n1Cc1ccccc1F | inactive
7 | COc1ccc(/C=N/NC(=O)c2ccc(NC(=O)c3ccccc3Br)cc2)cc1 | inactive
8 | Cc1ccccc1NC(=O)c1c(NC(=O)c2ccccc2)sc2c1CCC2 | inactive
9 | Cc1ccc(-n2c(C)cc(C=C3C(=O)N(C)C(=O)N(C)C3=O)c2C)cc1 | inactive
10 | CC(CNC(=O)c1ccc(OC2CCN(Cc3ccccn3)CC2)cc1)Oc1cccnc1 (stereo not drawn) | inactive
11 | COc1ccc(Cl)cc1NC(=O)NCCn1c(=O)oc2ccc(C)cc21 | inconclusive: 35.5 µM [inhibitor, partial curve, poor fit]
12 | Cn1c(=N)n(CC(=O)C(C)(C)C)c2ccccc21 | inconclusive: 2.24 µM [inhibitor, full curve, poor fit]
13 | Cc1nn(C(C)(C)C)c(OC(=O)c2ccc3c(c2)OCO3)c1Sc1ccccc1 | inconclusive: 17.8 µM [inhibitor, partial curve]
14 | CCS(=O)(=O)N1CCN(c2ccc([N+](=O)[O-])c(N3CCOCC3)c2)CC1 | inactive
15 | Cn1c(=O)c([N+](=O)[O-])c(Cl)c2ccccc21 | inconclusive: 10 µM [inhibitor, partial curve, poor fit]
16 | Cc1ccc(N(CC(=O)N2CCN(c3cccc(Cl)c3)CC2)S(=O)(=O)c2c(C)noc2C)cc1 | inconclusive: 0.631 µM [inhibitor, full curve, poor fit]
17 | COc1ccc(OC)c(NC(=O)CCCc2nnc3n(C(C)C)c(=O)c4sccc4n23)c1 | inactive
18 | COc1ccccc1N1CCN(C(=S)Nc2ccc(F)cc2)CC1 | inactive
19 | C=CC(=O)Nc1cccc(Oc2ccnc3[nH]ccc23)c1 | inconclusive: 31.6 µM [inhibitor, single point]
20 | CNC(=O)CC12CC3CC(CC(C3)C1)C2 | inactive
21 | Cc1ccc2oc(C(=O)Nc3ccc(S(=O)(=O)N4CCCC(C)C4)cc3)cc(=O)c2c1 (stereo not drawn) | inactive
22 | COc1ccc(NC(=O)C/C(C)=N/NC(=O)c2ccncc2)c([N+](=O)[O-])c1 | inactive
23 | CCOC(=O)c1cc2c(=O)n3ccccc3nc2n(CC(C)C)c1=NC(=O)COc1ccc(Cl)cc1 | inconclusive: 10 µM [inhibitor, partial curve]

Row | SMILES | Potency
24 | COc1ccc(C(=O)Nc2ccc3nc4c(c(Nc5ccc(OC)c(OC)c5)c3c2)CCCC4)c(OC)c1 | inconclusive: 3.55 µM [inhibitor, full curve, poor fit]
25 | Cc1c(C(=O)OCC(=O)Nc2cccc(S(N)(=O)=O)c2)oc2c1ccc1ccccc12 | inconclusive: 35.5 µM [inhibitor, single point]
26 | COc1ccccc1/C=c1/[nH]c(=O)/c(=C\c2ccccc2OC)[nH]c1=O | inconclusive: 6.31 µM [inhibitor, partial curve, poor fit]
27 | COC(=O)c1ccccc1NC(=S)N(Cc1ccc2c(c1)OCO2)Cc1cc2cc(OC)ccc2[nH]c1=O | inconclusive: 6.31 µM [inhibitor, full curve]
28 | CCN1CCN(c2ccc(S(=O)(=O)N3CCCCC3)cc2NC(=O)COc2cc(C)ccc2Cl)CC1 | inconclusive: 25.1 µM [inhibitor, single point]
29 | Cc1ccc(C)c(NC(=S)NCCSc2ccc(Cl)cc2)c1 | inconclusive: 31.6 µM [inhibitor, single point]
30 | Cc1ccc(-n2cc(CNCCCn3ccnc3C)c(-c3ccc(F)cc3)n2)cc1 | inconclusive: 14.1 µM [inhibitor, partial curve]
31 | COc1ccc(/C=N/N2CCN(Cc3ccc(C)cc3)CC2)cc1Br | inconclusive: 15.8 µM [inhibitor, single point]
32 | OCc1nnn(-c2cccc(C(F)(F)F)c2)c1CO | inconclusive: 35.5 µM [inhibitor, single point]
33 | Cc1cc(C(=O)OCC(=O)N2CC(C)OC(C)C2)c(C)n1-c1ccccc1 (stereo not drawn) | inconclusive: 15.8 µM [inhibitor, single point]
34 | COc1cc(C(=O)N/N=C/c2ccc3c(c2)c2ccccc2n3C)ccc1O | inactive
35 | O=C(Nc1ccc(Cl)cc1)Nc1ccccc1Sc1ncc([N+](=O)[O-])s1 | inconclusive: 35.5 µM [inhibitor, partial curve, poor fit]
36 | CCCC(=O)N1N=C(c2ccccc2)CC1c1cn(C)c2ccccc12 (stereo not drawn) | inconclusive: 35.5 µM [inhibitor, single point]
37 | CC1CCCCN1c1c(S(=O)(=O)c2ccc(Cl)cc2)cnc2ccccc12 (stereo not drawn) | inconclusive: 35.5 µM [inhibitor, single point]
38 | Cc1ccc(CCNC(=O)c2sc3ncccc3c2-n2c(C)ccc2C)cc1 | active: 11.2 µM
39 | CSc1nn(CCc2ccncc2)c(=S)s1 | inconclusive: 35.5 µM [inhibitor, single point]
40 | COCCCn1c(-c2cccc(Cl)c2)nc2c1c(=O)[nH]c(=O)n2Cc1ccccc1 | inactive
41 | CCOc1ccccc1NC(=O)N1CCCC1C(=O)Nc1nnc(CC)s1 (stereo not drawn) | inconclusive: 6.31 µM [inhibitor, single point]
42 | CCOC(=O)c1c(S(=O)(=O)N2CCC(C(=O)NCc3cccc(C)c3)CC2)c(C)n(C)c1C | inactive
43 | Cc1cc(/C=N/NC(=O)c2ccc(O)cc2)c(C)n1CC(C)C | inactive
44 | Cc1cccc(NCc2ccccc2O)c1C | inconclusive: 6.31 µM [inhibitor, full curve, poor fit]
45 | CC1(C(=O)NS(=O)(=O)c2cccc(Cl)c2)CCN1C(=O)c1ccccc1 (stereo not drawn) | inactive
46 | CCOc1cccc2sc(N3CCN(C(=O)c4ccc5c(c4)CCCC5)CC3)nc12 | inconclusive: 17.8 µM [inhibitor, single point]

Row | SMILES | Potency
47 | COc1ccc(CNC(=O)c2nc(SCc3ccc(C)cc3)ncc2Cl)cc1 | inconclusive: 6.31 µM [inhibitor, partial curve, poor fit]
48 | O=C1Nc2ccccc2SC(c2ccccc2)C1O (stereo not drawn) | inactive
49 | CCc1ccccc1NC(=O)c1cnn(-c2ccccc2)c1C | inactive
50 | O=C1CC(Cc2ccccc2)C(=O)N1CCc1ccc2c(c1)OCO2 (stereo not drawn) | inactive
51 | O=C(CN1C(=O)C(=O)c2ccccc21)NC1CCCCC1 | inconclusive: 5.62 µM [inhibitor, full curve, poor fit]
52 | Cc1cc(N2CCN(C)CC2)nc2ccc(NC(=O)c3ccc(C(C)(C)C)cc3)cc12 | inconclusive: 35.5 µM [inhibitor, single point]
53 | O=C(CN(C(=O)Cn1nnc(-c2ccc(F)cc2)n1)c1ccc(F)cc1)NC1CCCC1 | inactive
54 | C[C@H](CO)N1C[C@H](C)[C@H](CN(C)C(=O)c2ccccn2)Oc2cc(C#Cc3ccc(F)cc3)ccc2S1(=O)=O | inconclusive: 35.5 µM [inhibitor, single point]
55 | CCN1C(=O)[C@@H]2[C@@H](c3ccc(-c4ccc(OC)cc4)c(OC)c3)N3CCC[C@@]3(C(=O)OC)[C@@H]2C1=O | inconclusive: 25.1 µM [inhibitor, partial curve, poor fit]
56 | CN(Cc1ccccc1)c1nnc(NC(=O)Nc2cccc(Br)c2)s1 | inconclusive: 3.55 µM [inhibitor, full curve]
57 | CCOc1ccccc1N1CCN(C(=O)CSc2ccc3c(c2)OCCO3)CC1 | inconclusive: 35.5 µM [inhibitor, single point]
58 | O=C(c1ccc(-c2nc3ccccc3s2)o1)N1CCN(c2ccccc2O)CC1 | inconclusive: 35.5 µM [inhibitor, single point]
59 | CC1(c2nnc(-c3ccccc3)o2)CC(c2cccc(Cl)c2)=NO1 (stereo not drawn) | inconclusive: 7.08 µM [inhibitor, partial curve, poor fit]
60 | CCCC(C(=O)Nc1cccc(S(=O)(=O)N2CCCC2)c1)c1ccccc1 (stereo not drawn) | inconclusive: 35.5 µM [inhibitor, single point]
61 | Cc1ccn2c(Nc3c(C)cccc3C)c(-c3ccsc3)nc2c1 | inconclusive: 35.5 µM [inhibitor, single point]
62 | Cc1nn(Cc2ccccc2)c(Cl)c1C(=O)NCc1ccc(C)n1C | inactive
63 | COc1ccc(S(=O)(=O)N2CCCC2C(=O)NCc2ccccc2Cl)cc1 (stereo not drawn) | inconclusive: 35.5 µM [inhibitor, single point]
64 | CCN(CC)C(=O)c1ccc2c(c1)N(Cc1c(F)cccc1Cl)C(=O)c1ccccc1S2 | active: 15.8 µM
65 | Cc1nc2sc(C(c3cccs3)N3CCN(c4cccc(Cl)c4)CC3)c(O)n2n1 (stereo not drawn) | inconclusive: 35.5 µM [inhibitor, single point]
66 | CCOC(=O)Cc1c(C)nc2c(-c3ccc(Cl)cc3)c(C)[nH]n2c1=O | inconclusive: 7.94 µM [inhibitor, partial curve, poor fit]
67 | C(=C\c1ccco1)/c1ccc2ccccc2n1 | inconclusive: 12.6 µM [inhibitor, partial curve, poor fit]
68 | O=C(NC(=S)Nc1ccc2c(c1)OCCO2)c1cccc(Br)c1 | inconclusive: 35.5 µM [inhibitor, single point]
